# Assay results as given in PubChem BioAssay AID504832 (National Center for Advancing Translational Sciences (NCATS), 2011).
# Screen size: about 310,000 compounds; about 18,000 (5.8%) were called active. Inconclusive results, whose numbers are uncertain, are shown with a selection of clear calls. Calls follow the shape of the dose curve; as a rule, active = well fitted inhibition curve with a large enough effect; inconclusive = small, poorly fitted or top-dose-only effect, or another doubt; inactive = no such curve, though single readings can be large or run the other way. Potencies of inconclusive entries are left out as doubtful fits.
# Test: Primary qHTS for delayed death inhibitors of the malarial parasite plastid, 48 hour incubation
# Conditions: P. falciparum luciferase growth in erythrocytes; series mostly up to 28.7 µM; activity change, negative = inhibition: at the top concentration
# Summary of the method: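 A one-generation exposure of luciferase-tagged malaria parasites in RPMI 1640/Albumax erythrocyte culture, 37 C and 5% CO2. Inhibition is inferred from decreased luminescence after adding detection reagent.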
# % is scaled to controls: 0 for no effect and ±100 for the full control effect; potency is read from the fitted curve at half-maximal effect; tags tell the direction and shape of the fitted curve.
SMILES,"activity change, negative = inhibition",Potency
O=C(NC(Cc1ccccc1)C(=O)O)C1CCCCC1 (stereo unspecified),inactive: 2.82%,–
O=[N+]([O-])c1ccccc1OCCCN1CCc2ccccc2C1,inactive: -7.86%,–
COc1ccc(-c2noc(CN(C)C(=O)c3ccoc3C)n2)cc1,inactive: 18.6%,–
CN1CCCC2(CCCN(Cc3nc(Cc4cccc(C(F)(F)F)c4)no3)C2)C1 (stereo unspecified),–,"inconclusive [inhibitor, partial curve]"
CCCOc1ccc(C(=O)Nc2ccc(S(=O)(=O)N3C[C@@H]4C[C@@H](C3)c3cccc(=O)n3C4)cc2)cc1,–,active: 2.08 µM
O=C(CCC1CCCN(Cc2ccc3c(c2)CCO3)C1)NCc1ccc(F)c(F)c1 (stereo unspecified),–,"inconclusive [inhibitor, partial curve, poor fit]"
O=C(CSCc1ccc([N+](=O)[O-])cc1)NC1CC1,inactive: -2.96%,–
C=CCn1c2ccccc2c2nnc(SCCN3CCOCC3)nc21,–,"inconclusive [inhibitor, single point]"
COC(=O)c1ccc(N2CCN(c3ccccc3)CC2)c(NC(=O)C2CC2)c1,–,"inconclusive [inhibitor, single point]"
COCCN(Cc1cc2cc3c(cc2nc1Cl)OCO3)C(=O)c1cccc(C)c1,–,"inconclusive [inhibitor, partial curve]"
CC1=NNC(=O)C1C(c1ccccc1)C1C(=O)NN=C1C (stereo unspecified),–,"inconclusive [inhibitor, single point]"
Cc1cccc(C(=O)N2CCc3c([nH]c4ccccc34)C2CC(C)C)n1 (stereo unspecified),–,"inconclusive [inhibitor, partial curve, poor fit]"
CO/N=C/NC(=O)NOCc1c(Cl)cccc1Cl,inactive: 1.97%,–
COCC(=O)N(C)C1(c2nnnn2CCOC(=O)Nc2ccc(Cl)cc2)CCCCC1,–,"inconclusive [inhibitor, partial curve]"
CNC(=O)/C(C#N)=C/c1c(N(Cc2ccccc2)Cc2ccccc2)nc2c(C)cccn2c1=O,–,active: 13.1 µM
COc1ccc(CN2CCC(C)CC2)cc1OCc1ccccc1,–,"inconclusive [inhibitor, single point]"
CC(NC(=O)c1cc(S(=O)(=O)N(C)C)ccc1N1CCCC1)C1CC2CCC1C2 (stereo unspecified),–,"inconclusive [inhibitor, partial curve]"
CC1(c2nnc(-c3ccccc3)o2)CC(c2ccncc2)=NO1 (stereo unspecified),inactive: 0%,–
COC(=O)c1c(NC(=O)C(C)(C)C)sc2c1C(C(=O)OC)CC2 (stereo unspecified),–,"inconclusive [inhibitor, partial curve, poor fit]"
Cc1ccc(C(C(=O)Nc2ccc(C(C)C)cc2)N(C)C(=O)c2ccc(=O)[nH]c2)cc1 (stereo unspecified),–,"inconclusive [inhibitor, single point]"
CCOc1ccc(/C=C2/Sc3ccc(C(=O)N4CCOCC4)cc3N(C)C2=O)cc1OC,–,active: 9.28 µM
COc1ccc(N2C(=O)[C@@H]3[C@H](C2=O)[C@H]2C=CC=NN2[C@@H]3C(=O)Nc2ccc(Cl)cc2)cc1,–,"inconclusive [inhibitor, single point]"
COc1ccc(F)cc1CN1CCN(CC(=O)Nc2ccccc2C(=O)NC2CC2)CC1,–,"inconclusive [inhibitor, single point]"
CN(Cc1ccccc1)C(=S)NC(=O)c1cccs1,–,"inconclusive [inhibitor, partial curve, poor fit]"

SMILES,"activity change, negative = inhibition",Potency
CCN1C(=O)[C@H]2[C@@H](c3ccc(-c4ccc(OC)cc4)cc3)N[C@@](C)(C(=O)OC)[C@H]2C1=O,–,"inconclusive [inhibitor, single point]"
Cc1cc(Cl)c2ccccc2n1,inactive: -0.149%,–
CC(C)(C)c1ccc(N=C2SCC(=O)N2Cc2cccs2)cc1,–,"inconclusive [inhibitor, full curve, poor fit]"
C=CCn1c(C)nnc1SCC(=O)Nc1nccs1,–,"inconclusive [inhibitor, full curve]"
O=C1C=C(Nc2ccc(F)cc2)c2ccccc2C1=O,–,active: 1.85 µM
COc1ccc(C(N)c2nccc3cc(OC)c(OC)cc23)cc1OC (stereo unspecified),–,"inconclusive [inhibitor, single point]"
CCN(CC)C(=O)CSc1nc2cc(OC)c(OC)cc2c(=O)n1Cc1ccc(Cl)cc1,–,active: 11.7 µM
CN(C)S(=O)(=O)c1ccc(C(=O)Nc2nnc(-c3ccco3)o2)cc1,–,"inconclusive [inhibitor, partial curve, poor fit]"
C/C(=N\Nc1ccccn1)c1ccc(S(=O)(=O)NCc2ccco2)cc1,inactive: 0.408%,–
COc1cccc(OC)c1C(=O)Nc1c(C)n(C)n(-c2ccccc2)c1=O,inactive: 5.15%,–
O=C1Cc2ccccc2C(=O)N1c1ccc(F)cc1Cl,–,"inconclusive [inhibitor, full curve, poor fit]"
O=C(NNC(=O)C1CCN(Cc2ccc(F)cc2Cl)CC1)Nc1ccc([N+](=O)[O-])cc1,inactive: -8.71%,–
CCCCNC(=O)c1ccccc1NC(=O)CCSc1ccccc1,–,"inconclusive [inhibitor, single point]"
Cc1ccc(S(=O)(=O)N2CCOCC2)cc1C(=O)OC(C)C(=O)c1ccccc1 (stereo unspecified),–,"inconclusive [inhibitor, single point]"
COC(=O)c1oc2ccccc2c1NC(=O)c1ccccc1O,–,active: 10.4 µM
CC(=O)Nc1ccc(/C=C2\Sc3ccccc3C2=O)cc1,inactive: 11.9%,–
C=CCn1c(SCC(=O)Nc2ccccc2OC)nc2c([nH]c3ccccc32)c1=O,–,"inconclusive [inhibitor, partial curve]"
O=C(O)c1ccc2c(c1)C(=O)N(c1ccc(Nc3ccccc3)cc1)C2=O,inactive: -18.4%,–
CSc1sc(C(=O)N(C)C)c2c1S(=O)(=O)N(C)c1ccccc1-2,inactive: -8.27%,–
CC(C)=CC(=O)Nc1nnc(-c2ccccc2C)s1,inactive: 63%,–
Cc1nn(-c2ccc(F)cc2)c(C)c1NS(=O)(=O)c1ccc(Cl)cc1,–,"inconclusive [inhibitor, partial curve, poor fit]"
Cc1ccc(C2CC(=O)c3cnc(N4CCc5ccccc5C4)nc3C2)cc1 (stereo unspecified),–,"inconclusive [inhibitor, full curve, poor fit]"
Cc1ccc(S(=O)(=O)N2CCN(C(=S)NCCc3ccccc3)CC2)cc1,–,"inconclusive [inhibitor, full curve, poor fit]"
COc1ccc2c(c1)c(C(=O)CN1CCc3ccccc3C1)c(C)n2C,inactive: -69.5%,–

SMILES,"activity change, negative = inhibition",Potency
COc1ccccc1-c1nnc(SCC(=O)Nc2ccccc2)o1,–,"inconclusive [inhibitor, partial curve]"
CCOC(=O)Cn1c(=NC(=O)c2ccc([N+](=O)[O-])s2)sc2ccccc21,–,active: 9.28 µM
COc1ccc(CC(=O)Nc2nc3ccc(F)cc3s2)cc1S(=O)(=O)N1CCOCC1,–,"inconclusive [inhibitor, single point]"
COc1cc(OC)cc(C(=O)N2CCN(Cc3ccccc3C(F)(F)F)CC2)c1,inactive: 5.71%,–
Cc1cc(C)c(SCCc2ccncc2)c(C)c1,–,"inconclusive [inhibitor, partial curve]"
CCOc1ccc(S(=O)(=O)N2CCN(C(=O)c3oc4ccc(OC)cc4c3C)CC2)cc1,–,active: 10.4 µM
N#CC(C#N)=Cc1cccn1-c1ccc(S(N)(=O)=O)cc1,inactive: -9.08%,–
Cc1ncc([N+](=O)[O-])n1CCOC(=O)Nc1ccc(Cl)c(Cl)c1,–,"inconclusive [inhibitor, partial curve]"
CCOC(=O)c1sc2ccc(S(=O)(=O)N3CC(C)CC(C)C3)cc2c1N (stereo unspecified),inactive: -17%,–
CN(C)S(=O)(=O)N1CCC(Oc2cccc(C(=O)NC3CCOC3)c2)CC1 (stereo unspecified),inactive: 23.2%,–
COc1ccc(S(=O)(=O)N2CCC(C(=O)NCc3ccccn3)CC2)cc1C,inactive: 0.591%,–
Cc1ccc(-c2nnc(SCC(=O)N/N=C/c3cccs3)n2-c2ccc(C)cc2)cc1,inactive: -12.7%,–
CN1CCc2c(sc3c2C(=O)NC(c2cn(Cc4ccccc4)c4ccccc24)N3)C1 (stereo unspecified),–,"inconclusive [inhibitor, full curve]"
Cc1nn(-c2ccccc2)c(Cl)c1/C=C1\SC(=S)N(CCCCCC(=O)O)C1=O,–,"inconclusive [inhibitor, partial curve, poor fit]"
CCC1Oc2ccccc2N(CC(=O)NCCC2=CCCCC2)C1=O (stereo unspecified),–,"inconclusive [inhibitor, partial curve, poor fit]"
CC(C)(C)C1=CC(=O)C(N2CCOCC2)=CC1=O,–,active: 10.4 µM
FC(F)(F)c1cccc(Cn2nnnc2-c2ccc(Cl)cc2)c1,–,"inconclusive [inhibitor, partial curve, poor fit]"
Cc1cccc(NC(=S)NNC(=O)c2ccc(O)cc2O)c1C,–,"inconclusive [inhibitor, full curve]"
CCCC(=O)Nc1cc(C)c(NC(=O)C23CC4CC(CC(C4)C2)C3)cn1,–,"inconclusive [inhibitor, single point]"
CCCC(=O)Nc1sc(C)c(C)c1C(=O)Nc1cccc(C)c1,–,"inconclusive [inhibitor, partial curve, poor fit]"
Nc1ccc(N2CCN(c3ccc(F)cc3)CC2)cc1,–,"inconclusive [inhibitor, partial curve, poor fit]"
CCN(CC)c1ccc2c(C)c(-c3ccc(N)cc3)c(=O)oc2c1,–,"inconclusive [inhibitor, single point]"
COc1cccc(-c2cc(C(F)(F)F)nc(N3CCCCC3)n2)c1,–,"inconclusive [inhibitor, partial curve]"
